The source of these data is article PMC10516938, “Conformational dynamics of cohesin/Scc2 loading complex are regulated by Smc3 acetylation and ATP binding” (Nature Communications, 2023).

Changes are numbered by the printed parent chain. Names and notes keep the numbering of the source. No constants are given. Whether binding was seen depends on the method and setting. In cells and extracts the contact can be indirect. Some entries that bind do so weakly or less than the wild type.

One assay concerns the target T1, Smc3-PK (S. cerevisiae) (UniProt P47037).
T1 sequence: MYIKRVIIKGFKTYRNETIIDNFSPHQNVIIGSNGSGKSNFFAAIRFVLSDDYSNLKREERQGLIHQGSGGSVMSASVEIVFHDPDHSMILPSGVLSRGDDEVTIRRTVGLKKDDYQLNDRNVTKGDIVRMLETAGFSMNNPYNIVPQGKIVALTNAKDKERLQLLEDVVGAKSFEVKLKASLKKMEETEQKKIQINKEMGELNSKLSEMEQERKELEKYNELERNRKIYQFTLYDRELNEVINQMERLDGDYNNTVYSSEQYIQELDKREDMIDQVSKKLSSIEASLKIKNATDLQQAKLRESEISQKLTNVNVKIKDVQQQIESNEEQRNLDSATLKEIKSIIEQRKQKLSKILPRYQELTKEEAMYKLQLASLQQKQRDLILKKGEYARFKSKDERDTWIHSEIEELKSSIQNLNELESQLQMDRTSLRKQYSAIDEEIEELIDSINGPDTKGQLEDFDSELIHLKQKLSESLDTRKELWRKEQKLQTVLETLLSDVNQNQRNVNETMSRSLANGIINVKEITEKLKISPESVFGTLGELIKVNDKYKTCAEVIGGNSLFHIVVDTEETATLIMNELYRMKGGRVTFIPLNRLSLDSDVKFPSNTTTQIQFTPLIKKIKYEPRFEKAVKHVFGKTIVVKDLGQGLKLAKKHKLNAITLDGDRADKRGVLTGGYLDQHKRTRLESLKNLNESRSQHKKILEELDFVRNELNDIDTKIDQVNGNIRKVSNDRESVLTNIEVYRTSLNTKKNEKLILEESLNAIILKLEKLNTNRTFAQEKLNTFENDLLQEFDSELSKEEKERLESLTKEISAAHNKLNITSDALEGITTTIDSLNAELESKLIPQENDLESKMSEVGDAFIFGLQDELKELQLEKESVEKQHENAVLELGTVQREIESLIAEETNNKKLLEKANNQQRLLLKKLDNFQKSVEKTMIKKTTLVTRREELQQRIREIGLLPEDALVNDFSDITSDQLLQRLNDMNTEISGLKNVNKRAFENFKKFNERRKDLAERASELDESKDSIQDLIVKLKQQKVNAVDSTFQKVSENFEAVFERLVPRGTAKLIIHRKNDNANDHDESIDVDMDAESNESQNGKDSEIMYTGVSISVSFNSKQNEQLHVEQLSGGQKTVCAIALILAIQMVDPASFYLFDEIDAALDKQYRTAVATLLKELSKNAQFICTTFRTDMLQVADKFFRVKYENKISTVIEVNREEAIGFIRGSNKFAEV
The assay can be described thus: co-IP; Smc3-PK or Smc3^QQ-PK immunoprecipitated with anti-PK from whole-cell extracts of BMOE-treated late G1 arrested cells; Smc1 (anti-MYC) and Scc2 (anti-FLAG) detected.

For assay [1], the target named is T2, Smc3 Q67C (S. cerevisiae) (UniProt P47037).
T2 sequence: T1 sequence with Q67C
Description: cross-linking; in vivo BMOE cross-link of cysteine pairs in yeast cells arrested in late G1 by non-degradable Sic1(9m); Scc1-PK immunoprecipitated, western blot, band intensities quantified.

B1: Scc2 T1281C (protein, UniProt Q04002 1-1493)
chain: MSYPGKDKNIPGRIIEALEDLPLSYLVPKDGLAALVNAPMRVSLPFDKTIFTSADDGRDVNINVLGTANSTTSSIKNEAEKERLVFKRPSNFTSSANSVDYVPTNFLEGLSPLAQSVLSTHKGLNDSINIEKKSEIVSRPEAKHKLESVTSNAGNLSFNDNSSNKKTKTSTGVTMTQANLAEQYLNDLKNILDIVGFDQNSAEIGNIEYWLQLPNKKFVLTTNCLTKLQMTIKNITDNPQLSNSIEITWLLRLLDVMVCNIKFSKSSLKMGLDDSMLRYIALLSTIVLFNIFLLGKNDSNLHRESYIMEPVNFLSDLIESLKILTIEYGSLKIEFDTFQEALELLPKYIRNGPFLDDNVTAKLVYIFSDLLMNNDIEATTNIQFQSFWDNVKRISSDILVSLFGSFDQQRGFIIEELLSHIEKLPTKRIQKKLRKVGNQNIYITDFTFTLMSMLENINCYSFCNQMKDIAPENIDLLKNEYKKQEEFLFNIVEHINDTILERFFKNPSALRYVIDNFVQDLLLLISSPQWPVTEKILSSLLKRLLSVYSPSMQVSANIETICLQLIGNIGSTIFDIKCSTRDHEDNNLIKMINYPETLPHFFKSFEECIAYNETIKCRRSATRFLWNLRLGTILILEEYTKDAKEQIITVDNELKKILEQIKDGGLGPELENREADFSTIKLDYFSILHAFELLNLYDPYLKLILSLLAKDKIKLRSTAIKCLSMLASKDKVILSNPMVKETIHRRLNDSSASVKDAILDLVSINSSYFEFYQQINNNYNDDSIMVRKHVLRINEKMYDETNDIVTKVYVIARILMKIEDEEDNIIDMARLILLNRWILKVHEVLDQPEKLKEISSSVLLVMSRVAIMNEKCSQLFDLFLNFYLLNKEAHSKEAYDKITHVLTILTDFLVQKIVELNSDDTNEKNSIVDKQNFLNLLAKFADSTVSFLTKDHITALYPYMVSDEKSDFHYYILQVFRCTFEKLANFKQKFLYDLETTLLSRLPKMNVREIDEAMPLIWSVATHRHDTARVAKACSSCLSHLHPYINKANNEEAAIVVDGKLQRLIYLSTGFARFCFPKPSNDKIAFLQEGETLYEHITKCLLVLSKDKITHVIRRVAVKNLTKLCGNHPKLFNSRHVLHLLDKEFQSDQLDIKLVILESLYDLFLLEERKSVRNTGVNSTLSSNSILKKKLLKTNRVEFANDGVCSALATRFLDNILQLCLLRDLKNSLVAIRLLKLILKFGYTNPSHSIPTVIALFASTSQYIRHVAYELLEDLFEKYECLVFSSLSRGVTKAIHYSIHTDEKYYYKHDHFLSLLEKLCGTGKKNGPKFFKVLKRIMQSYLDDITDLTSTNSSVQKSIFVLCTNISNITFVSQYDLVSLLKTIDLTTDRLKEVIMDEIGDNVSSLSVSEEKLSGIILIQLSLQDLGTYLLHLYGLRDDVLLLDIVEESELKNKQLPAKKPDISKFSAQLENIEQYSSNGKLLTYFRKHVKDT
As to B1, the binding entry with Smc3-PK (S. cerevisiae) is recorded as “binds”.

B2: Scc2 T1175C (natural protein, S. cerevisiae, UniProt Q04002 1-1493, looked up)
chain: B1 chain with T1175C, C1281T
notes: Scc2, S. cerevisiae; source: S. cerevisiae W303, in vivo, whole-cell extract
In the case of B2, the binding entry in assay [1] was “binds”.
